Common to all, as to experiment: Primary Screen for Target Class Profiling of Small Molecule Inhibitors of Methyltransferases
Test [1] deals with Glycine N-methyltransferase (Homo sapiens) (UniProt Q14749). Conditions: purified enzyme, MTase-Glo SAH luminescence; measured here: GNMT inhibition; at 40 µM; stronger effect = lower value. The method, boiled down:
(§1)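 Each enzyme was assayed with SAM and its substrate. SAH formation detected by MTase-Glo luminescence; single-point 40 uM screen[…].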

For test [2], the target named is Guanidinoacetate N-methyltransferase (Homo sapiens) (UniProt Q14353). Conditions: purified enzyme, MTase-Glo SAH luminescence; measured here: GAMT inhibition; at 40 µM; stronger effect = lower value. The procedure, abridged: as §1
For test [3], the target named is Histamine N-methyltransferase (Homo sapiens) (UniProt P50135). Conditions: purified enzyme, MTase-Glo SAH luminescence; measured here: HNMT inhibition; at 40 µM; stronger effect = lower value. The method, boiled down:
as §1

In test [4] the target is Nicotinamide N-methyltransferase (Homo sapiens) (UniProt P40261). Conditions: purified enzyme, MTase-Glo SAH luminescence; measured here: NNMT inhibition; at 40 µM; stronger effect = lower value. The method, boiled down:
as §1

Test [5] addresses Phenylethanolamine N-methyltransferase (Homo sapiens) (UniProt P11086). Conditions: purified enzyme, MTase-Glo SAH luminescence; measured here: PNMT inhibition; at 40 µM; stronger effect = lower value. The method, boiled down:
as §1

Some of the results follow. These are further read-outs of the screen, such as a control signal, another cell line or another target. No call is given for them.
% is set by controls: 0 for no effect and ±100 for the full control effect.

Consider `O=C(Nc1ccccc1)c1cnc2c(c1)N(C(=O)Cc1ccc(O)cc1)CCC2`, for which the activity change, negative = inhibition in test [1] was -6.97%; in test [2], -1.74%; in test [3], -89.1%; in test [4], -11%; in test [5], -5.02%.
In the same order, the values of `CC1(C)CCC[C@@]2(C)[C@H]1[C@H](O)C=C(CO)[C@]2(O)CO` are 4.28%, 9.18%, 10.8%, -6.28% and 2.7%.
In the case of `CCCc1ccc2oc(C(=O)N(C)CCC3CCCCO3)c(C)c2c1` (stereo not given), the activity change, negative = inhibition in test [1] was -9.11%; in test [2], -13.1%; in test [3] it was -5.34%; in test [4], -16.9%; in test [5], -14.2%.
In the same order, the values of `CCOCC(=O)N[C@@H]1CN(S(C)(=O)=O)C[C@H]1CN(C)C` are -1.67%, -6.86%, 1.94%, -2.41% and 2.98%.
For `Cc1nc(C)c(C(=O)N2Cc3ccccc3C(O)C2)s1` (stereo not given) the same measures were -5.96%, -11.7%, -4.56%, -6.12% and -9.72%.
In the same order, the values of `COc1ccc(OC)c2c1cc1n2CC(C)(C(=O)NC2CCCCC2C)N(Cc2cccs2)C1=O` (stereo not given) are 0.195%, 0%, 4.65%, -1.7% and 1.87%.
Turning to `CCCCS(=O)(=O)Nc1ncnc(OCCOc2ncc(Br)cn2)c1-c1ccc(Br)cc1`, the activity change, negative = inhibition in test [1] is -7.45%; in test [2], -2.71%; in test [3], 9.57%; in test [4], -14.8%; in test [5], 0.444%.
In the same order, the values of `O=C(CC1CCCC1)N1C[C@@H](CO)[C@@H]2Oc3ccc(Cl)cc3[C@@H]21` are -3.69%, -3.26%, -2.05%, -14.2% and -2.79%.
Consider `Cn1cc(C2=C(c3coc4ccccc34)C(=O)NC2=O)c2cc(Br)ccc21`, for which the activity change, negative = inhibition in test [1] is -5.39%; in test [2] it was -23%; in test [3] it was -7.25%; in test [4], -44.1%; in test [5], -8.09%.
In the same order, the values of `CC(C)CCN1C(=O)c2cc3occc3n2CC1(C)C(=O)NC1CCCCC1` (stereo not given) are -1.06%, 4.99%, 2.71%, 6.14% and -2.65%.
Consider `CC1(C(=O)NC2CCCCCC2)Cn2nc(-c3ccco3)cc2C(=O)N1Cc1ccc(F)cc1` (stereo not given), for which the activity change, negative = inhibition in test [1] is -11%; in test [2] it was 1.55%; in test [3], -8.94%; in test [4], -10.1%; in test [5], -5.64%.
Turning to `O=C(NC1CCCCC1)C1CN(C(=O)c2ccc(Br)o2)CC12CCOCC2` (stereo not given), the activity change, negative = inhibition in test [1] was -0.221%; in test [2] it was -0.207%; in test [3], 1.83%; in test [4], -3.12%; in test [5] it was 0.844%.
In the same order, the values of `COC(=O)c1ncn2c1C(=O)N(Cc1ccc(OC(C)C)cc1)C(C)(C(=O)NC1CCCCC1)C2` (stereo not given) are 6.07%, 0%, 7.03%, 10.4% and 6.72%.
In the same order, the values of `Cc1cc(N2CCN([C@@H]3CN[C@H](C(=O)N4CCSC4)C3)CC2)n(-c2ccccc2)n1` are -47.9%, -26.2%, -11.8%, -40.4% and -10.3%.
In the same order, the values of `COc1ccccc1CNC(=O)c1ccc2c(c1)N(C)C1CCCCN1C2=O` (stereo not given) are -15.1%, -2.93%, -12.6%, -3.6% and -3.72%.
`CC1(C(=O)NC2CCCCCC2)Cn2c(cc3occc32)C(=O)N1C1CCCCCC1` (stereo not given): the activity change, negative = inhibition in test [1] was -9.69%; in test [2], -1.47%; in test [3] it was -7.92%; in test [4] it was -10.7%; in test [5], -10.5%.
Regarding `C=C1C(=O)O[C@H]2C1CCC(C)=C1C(=O)C=C(C)[C@@]12O` (stereo not given in full), the activity change, negative = inhibition was 0.044% in test [1]; -7.95% in test [2]; 5.15% in test [3]; -15.6% in test [4]; -6.63% in test [5].
For `COC1CCCC/C(C)=C/C2C=C(C)C(C)C3C(CC(C)C)NC(=O)C23C(=O)C1` (stereo not given), the activity change, negative = inhibition in test [1] was 0%; in test [2], 9.9%; in test [3], 13%; in test [4], -4.2%; in test [5] it was 3.2%.
For `Cc1ccc(NC(=O)N2CCn3c(C)ccc3C2C(C)C)c(Cl)c1` (stereo not given) the same measures were -2.44%, 3.85%, -10.9%, -16.8% and -1.62%.
In the case of `COc1ccnc(CS(=O)c2nc3ccc(OC(F)F)cc3[nH]2)c1OC` (stereo not given), the activity change, negative = inhibition was -6.63% in test [2], -19.4% in test [4] and -1.42% in test [5].
For `CN(C)[C@H]1CCN(C(=O)c2ccc(SCCO)cc2)C[C@H]1CCC(=O)O`, the activity change, negative = inhibition in test [1] is -5.17%; in test [2] it was -8.86%; in test [3], -4.36%; in test [4] it was -11.3%; in test [5] it was 12.7%.
As for `C=C(NC(=O)C(=C)NC(=O)c1csc(C2=NC3c4csc(n4)C4NC(=O)c5csc(n5)C(C(C)(O)C(C)O)NC(=O)C5CSC(=N5)/C(=C/C)NC(=O)C(C(C)O)NC(=O)c5csc(n5)C3(CC2)NC(=O)C(C)NC(=O)C(=C)NC(=O)C(C)NC(=O)C(C(C)CC)NC2C=Cc3c(C(C)O)cc(nc3C2O)C(=O)OC4C)n1)C(N)=O` (stereo not given), the activity change, negative = inhibition was -14.3% in test [1] and 5.46% in test [3].
Consider `COC1/C=C/C(C)(O)C(SCC(N)C(=O)O)CC(=O)OC(C)C(C)CC/C=C/1C` (stereo not given), for which the activity change, negative = inhibition was -0.736% in test [1]; -0.871% in test [2]; 4.28% in test [3]; -13.4% in test [4]; 1.2% in test [5].
As for `Cn1c(=O)n(C)c2cc(S(=O)(=O)N3CCN(c4ccccc4)CC3)c(Cl)cc21`, the activity change, negative = inhibition was 14% in test [1]; 2.88% in test [2]; 11.2% in test [3]; 4.96% in test [4]; 9.39% in test [5].
With `C=CCCC(CN1CCCC1)Oc1ccc(C(=O)NCC)cn1` (stereo not given), the activity change, negative = inhibition in test [1] is -4.12%; in test [2], -11.5%; in test [3], -4.18%; in test [4], -17.4%; in test [5], -18.2%.
Regarding `CN1C(=O)c2cc(C(=O)NC3CCCCC3)nn2CC1(C)C(=O)NCc1ccc(F)cc1` (stereo not given), the activity change, negative = inhibition amounted to 6.06% in test [1]; 0% in test [2]; 2.63% in test [3]; 4.33% in test [4]; 0.525% in test [5].
In the same order, the values of `Cc1ccccc1CN1CCC(N2CCCC(C(=O)NC3CC3)C2)CC1` (stereo not given) are -1.44%, -1.18%, -9.26%, -0.243% and -0.658%.
As to `CC(C)n1c(=O)sc2cc(NS(=O)(=O)c3ccc4c(c3)n(C)c(=O)n4C)ccc21`, the activity change, negative = inhibition in test [1] was -10.7%; in test [2], 0%; in test [3] it was 7.83%; in test [4], -4.75%; in test [5] it was 3.27%.
With `CCOc1ccc(C(=O)CSc2nnc3n(C)c(=O)c4ccc(C(=O)NC5CCCCC5)cc4n23)cc1`, the activity change, negative = inhibition came to 0.548% in test [1]; 5.08% in test [2]; 5.62% in test [3]; 4% in test [4]; 5.96% in test [5].
In the same order, the values of `O=C1CCCCC(CNC(=O)c2cn[nH]c2-c2ccccc2)N1` (stereo not given) are -0.191%, 2.29%, 0.92%, -5% and 3.67%.
For `CC(C)c1ccc(NC(=O)c2cccs2)c(-c2nc3ccccc3[nH]c2=O)c1` the same measures were -2.65%, -7.08%, 6.91%, -29.6% and -8.11%.
In the same order, the values of `COc1ccc(-c2cc(C(=O)NCCc3ccc(OC)c(OC)c3)c3c(-c4ccc(OC)cc4)[nH]nc3n2)cc1` are 2.81%, 0%, 1.67%, 1.56% and -0.684%.
Turning to `Cc1nnc2n1CCC(NC(=O)c1ccoc1)CC2` (stereo not given), the activity change, negative = inhibition in test [1] was -2.19%; in test [2], -0.417%; in test [3] it was -0.522%; in test [4] it was -7.36%; in test [5] it was -1.7%.
For `CCCn1c(=O)c2cc(F)ccc2n2c(SCC(=O)Nc3ccc(F)cc3)nnc12` the same measures were 1.05%, 4.5%, 7.54%, -1.22% and 0.032%.
For `CCCN1C(=O)c2c(C(=O)NCc3ccc(N(C)C)cc3)ncn2CC1(C)C(=O)NCc1ccc(C)cc1` (stereo not given) the same measures were -0.306%, 0.504%, 4.66%, 0.496% and 5.29%.
For `CCOc1cc(C)c(Cl)cc1S(=O)(=O)n1cnc2ccccc21` the same measures were -5.95%, -10.3%, 10.1%, -19.5% and -1.55%.
Consider `CN1c2ccccc2C(=O)N2CCC3c4ccccc4NC3C21` (stereo not given), for which the activity change, negative = inhibition in test [1] was -5.45%; in test [2], 2.23%; in test [3], 9.14%; in test [4], -14.6%; in test [5], 2.89%.
Take `CC1(C(=O)NC2CCCCCC2)Cn2nc(C3CC3)cc2C(=O)N1Cc1cccc(Cl)c1` (stereo not given): the activity change, negative = inhibition in test [1] is 2.87%; in test [2], 0%; in test [3], 6.5%; in test [4], -0.998%; in test [5], 2.13%.

The values are drawn from PubChem BioAssay AID1745853 (National Center for Advancing Translational Sciences (NCATS), 2022).
